Measurements: PMC12820563
This is one part of the list. The list includes weakly bound sequences.

biological target: T1, MBP-FoxP3dN (UniProt Q99JB6); experiment: PD-seq (MBP pull-down with sequencing); conditions: 20 mM Tris-HCl pH 7.5, 100 mM NaCl, 1.5 mM MgCl2, 0.4 uM protein, 0.1 uM dsDNA library, 30 min, room temperature, amylose pull-down; high values mean tight binding; double strand, one strand shown
T1 sequence: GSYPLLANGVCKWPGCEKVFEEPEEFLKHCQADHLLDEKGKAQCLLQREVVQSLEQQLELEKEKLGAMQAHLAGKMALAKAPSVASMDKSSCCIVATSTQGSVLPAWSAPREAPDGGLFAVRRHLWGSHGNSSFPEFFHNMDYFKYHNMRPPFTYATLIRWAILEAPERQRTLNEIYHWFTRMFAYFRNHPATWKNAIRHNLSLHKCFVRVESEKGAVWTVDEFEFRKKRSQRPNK

Row | Sequence | binding signal (RPM ratio (pull-down/input))
1 | GATGATTGTTCTCCCAGCTGATGAATTTAAGTCATCGAGTAAACAAATTTTCCTAATCTTTCTGTTCAAGCGCCATCTAC | 0.494
2 | GATGATTGTTCTCCCAGCTGATGAATTCAGGGTTTCGAGTAAACAAATTTTCCTAATCTTTCTGTTCAAGCGCCATCTAC | 0.576
3 | GATGATTGTTCTCCCAGCTGATGAATTCACTAGATCGAGTAAACAAATTTTCCTAATCTTTCTGTTCAAGCGCCATCTAC | 0.21
4 | GATGATTGTTCTCCCAGCTGATGAATTTTCAAGTTCGAGTAAACAAATTTTCCTAATCTTTCTGTTCAAGCGCCATCTAC | 0.224
5 | GATGATTGTTCTCCCAGCTGATGAATTAATACGGTCGAGTAAACAAATTTTCCTAATCTTTCTGTTCAAGCGCCATCTAC | 0.434
6 | GATGATTGTTCTCCCAGCTGATGAATTCAACGGCTCGAGTAAACAAATTTTCCTAATCTTTCTGTTCAAGCGCCATCTAC | 0.27
7 | GATGATTGTTCTCCCAGCTGATGAATTTTCGAATTCGAGTAAACAAATTTTCCTAATCTTTCTGTTCAAGCGCCATCTAC | 0.732
8 | GATGATTGTTCTCCCAGCTGATGAATTTGTGGAATCGAGTAAACAAATTTTCCTAATCTTTCTGTTCAAGCGCCATCTAC | 0.752
9 | GATGATTGTTCTCCCAGCTGATGAATTCTTTCTCTCGAGTAAACAAATTTTCCTAATCTTTCTGTTCAAGCGCCATCTAC | 0.189
10 | GATGATTGTTCTCCCAGCTGATGAATTGGCCCGTTCGAGTAAACAAATTTTCCTAATCTTTCTGTTCAAGCGCCATCTAC | 0.297
11 | GATGATTGTTCTCCCAGCTGATGAATTCCGCTCCTCGAGTAAACAAATTTTCCTAATCTTTCTGTTCAAGCGCCATCTAC | 0.997
12 | GATGATTGTTCTCCCAGCTGATGAATTCAGGTGGTCGAGTAAACAAATTTTCCTAATCTTTCTGTTCAAGCGCCATCTAC | 0.375
13 | GATGATTGTTCTCCCAGCTGATGAATTAGCACATTCGAGTAAACAAATTTTCCTAATCTTTCTGTTCAAGCGCCATCTAC | 0.544
14 | GATGATTGTTCTCCCAGCTGATGAATTACAGCCGTCGAGTAAACAAATTTTCCTAATCTTTCTGTTCAAGCGCCATCTAC | 0.412
15 | GATGATTGTTCTCCCAGCTGATGAATTCCACTCATCGAGTAAACAAATTTTCCTAATCTTTCTGTTCAAGCGCCATCTAC | 0.57
16 | GATGATTGTTCTCCCAGCTGATGAATTTGTTGGCTCGAGTAAACAAATTTTCCTAATCTTTCTGTTCAAGCGCCATCTAC | 7
17 | GATGATTGTTCTCCCAGCTGATGAATTTATGAGGTCGAGTAAACAAATTTTCCTAATCTTTCTGTTCAAGCGCCATCTAC | 1.07
18 | GATGATTGTTCTCCCAGCTGATGAATTATTGGAGTCGAGTAAACAAATTTTCCTAATCTTTCTGTTCAAGCGCCATCTAC | 0.296
19 | GATGATTGTTCTCCCAGCTGATGAATTTTCTCCCTCGAGTAAACAAATTTTCCTAATCTTTCTGTTCAAGCGCCATCTAC | 0.212
20 | GATGATTGTTCTCCCAGCTGATGAATTTCGCGCTTCGAGTAAACAAATTTTCCTAATCTTTCTGTTCAAGCGCCATCTAC | 1.03

Row | Sequence | binding signal (RPM ratio (pull-down/input))
21 | GATGATTGTTCTCCCAGCTGATGAATTGGTTAGCTCGAGTAAACAAATTTTCCTAATCTTTCTGTTCAAGCGCCATCTAC | 1.02
22 | GATGATTGTTCTCCCAGCTGATGAATTTGAACGATCGAGTAAACAAATTTTCCTAATCTTTCTGTTCAAGCGCCATCTAC | 0.224
23 | GATGATTGTTCTCCCAGCTGATGAATTCCGCTTATCGAGTAAACAAATTTTCCTAATCTTTCTGTTCAAGCGCCATCTAC | 1.8
24 | GATGATTGTTCTCCCAGCTGATGAATTATTGACATCGAGTAAACAAATTTTCCTAATCTTTCTGTTCAAGCGCCATCTAC | 2.27
25 | GATGATTGTTCTCCCAGCTGATGAATTACTTTCATCGAGTAAACAAATTTTCCTAATCTTTCTGTTCAAGCGCCATCTAC | 0.366
26 | GATGATTGTTCTCCCAGCTGATGAATTCGAAAGATCGAGTAAACAAATTTTCCTAATCTTTCTGTTCAAGCGCCATCTAC | 0.184
27 | GATGATTGTTCTCCCAGCTGATGAATTTAGTTGTTCGAGTAAACAAATTTTCCTAATCTTTCTGTTCAAGCGCCATCTAC | 5.93
28 | GATGATTGTTCTCCCAGCTGATGAATTTAACCATTCGAGTAAACAAATTTTCCTAATCTTTCTGTTCAAGCGCCATCTAC | 0.385
29 | GATGATTGTTCTCCCAGCTGATGAATTAATGACTTCGAGTAAACAAATTTTCCTAATCTTTCTGTTCAAGCGCCATCTAC | 0.595
30 | GATGATTGTTCTCCCAGCTGATGAATTTCGATGATCGAGTAAACAAATTTTCCTAATCTTTCTGTTCAAGCGCCATCTAC | 0.815
31 | GATGATTGTTCTCCCAGCTGATGAATTACATCAGTCGAGTAAACAAATTTTCCTAATCTTTCTGTTCAAGCGCCATCTAC | 0.493
32 | GATGATTGTTCTCCCAGCTGATGAATTCATAGAATCGAGTAAACAAATTTTCCTAATCTTTCTGTTCAAGCGCCATCTAC | 0.24
33 | GATGATTGTTCTCCCAGCTGATGAATTGTACTTGTCGAGTAAACAAATTTTCCTAATCTTTCTGTTCAAGCGCCATCTAC | 0.999
34 | GATGATTGTTCTCCCAGCTGATGAATTCGTAACCTCGAGTAAACAAATTTTCCTAATCTTTCTGTTCAAGCGCCATCTAC | 0.515
35 | GATGATTGTTCTCCCAGCTGATGAATTCTGTGCGTCGAGTAAACAAATTTTCCTAATCTTTCTGTTCAAGCGCCATCTAC | 1.02
36 | GATGATTGTTCTCCCAGCTGATGAATTCGTCATGTCGAGTAAACAAATTTTCCTAATCTTTCTGTTCAAGCGCCATCTAC | 1.92
37 | GATGATTGTTCTCCCAGCTGATGAATTCGGATCTTCGAGTAAACAAATTTTCCTAATCTTTCTGTTCAAGCGCCATCTAC | 0.294
38 | GATGATTGTTCTCCCAGCTGATGAATTGATTCCCTCGAGTAAACAAATTTTCCTAATCTTTCTGTTCAAGCGCCATCTAC | 0.419
39 | GATGATTGTTCTCCCAGCTGATGAATTTGGACAGTCGAGTAAACAAATTTTCCTAATCTTTCTGTTCAAGCGCCATCTAC | 0.347
40 | GATGATTGTTCTCCCAGCTGATGAATTGCCGGGGTCGAGTAAACAAATTTTCCTAATCTTTCTGTTCAAGCGCCATCTAC | 0.381
